# Some of the results follow. Shown are side measurements of this screen, not its main read-out; they come without a call.
# Target: GTPase KRas (Homo sapiens) (UniProt P01116)
# Test: Fragment capture on engineered cysteines, share of protein labelled (AID 2202238)
# Set-up: protein at 5 µM with 500 µM competing thiol for 1.5 h
# Settings: KRAS G12D cysteine mutants, disulfide tethering, MALDI-TOF labeling, stronger effect = higher value, fragment at 500 µM
# [1] = measured here: G75C mutant labeling
# [2] = measured here: H94C mutant labeling
# [3] = measured here: I36C mutant labeling
# [4] = measured here: L120C mutant labeling
# [5] = measured here: M67C mutant labeling
# [6] = measured here: M72C mutant labeling
# [7] = measured here: N86C mutant labeling
# [8] = measured here: P121C mutant labeling
# [9] = measured here: S122C mutant labeling
# [10] = measured here: S136C mutant labeling
# [11] = measured here: G60C mutant labeling
# [12] = measured here: N26C mutant labeling
# Sequence of UniProt P01116 (P01116 whole entry, looked up, the tested form may be a part): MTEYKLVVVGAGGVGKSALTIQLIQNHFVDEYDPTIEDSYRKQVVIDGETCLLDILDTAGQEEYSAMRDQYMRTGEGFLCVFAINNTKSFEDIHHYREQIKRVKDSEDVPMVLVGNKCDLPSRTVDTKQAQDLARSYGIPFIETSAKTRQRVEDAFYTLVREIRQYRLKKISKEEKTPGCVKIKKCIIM
SMILES,percent labeling [1] [%],percent labeling [2] [%],percent labeling [3] [%],percent labeling [4] [%],percent labeling [5] [%],percent labeling [6] [%],percent labeling [7] [%],percent labeling [8] [%],percent labeling [9] [%],percent labeling [10] [%],percent labeling [11] [%],percent labeling [12] [%]
CC(NC(=O)CCS)C(O)c1cccc(F)c1 (stereo unspecified),11.3,34.2,31,31.1,31.4,28.2,17.3,39.9,33.6,50.4,,
CC1CN(Cc2ccccc2)CC1C(=O)NCCS (stereo unspecified),59.9,44.4,46.6,39.6,65.1,37.1,37.7,35.1,35.2,63.1,52,48.4
CCn1cc(Cn2cc(Cl)c(NC(=O)CCS)n2)cn1,16.6,42.6,44.1,41.6,40.6,39,56.2,31.8,33.3,50.8,,
Cn1nccc1-c1[nH]ncc1CNC(=O)CCS,10.1,28.9,39,25.8,31.4,18.4,17.6,31,35,50,,
O=C(CCS)N1CCC(c2cccc(F)c2)CC1,21.4,26.8,25.1,23.9,24.6,41.1,21.8,25.6,19.4,48.2,,
CCn1ncc(C(=O)NCCS)c1-c1ccccc1,24.7,51.5,31,48.2,44.6,47.8,26.6,33.7,37.7,67.4,59.8,42.8
O=C(NCCS)C1CCN(S(=O)(=O)c2ccccc2C2CCCCC2)CC1,9.4,7,2.4,6.3,1.9,9.8,0,3.1,0,6.5,10.3,5.8
O=C(NCCS)C1CC(=O)N(CCOc2ccccc2Cl)C1 (stereo unspecified),26.7,40.1,34,37.6,73.9,46.9,22,36.4,27.9,61.5,58,38.7
COc1cc(NC(=O)CCS)c(C(N)=O)cc1OC,22.4,28.6,29.1,41.1,32.9,37.1,13,27.3,31.5,52,,
O=C(NCCS)C1CC(=O)N(Cc2ccco2)C1 (stereo unspecified),7,25.1,23.5,31.1,25.8,12.7,15.8,26,22.3,42.4,22,27.7
COc1ccc2c(c1)OC(C)(C)CN(C(=O)CCS)C2,16.5,35.7,34.7,28.4,37,51.6,22.4,49,29.5,60.8,,
Cc1cc(OC(F)F)c(C(=O)NCCS)s1,23.9,33.8,15.6,28.9,23.4,40.2,22,22.6,20.1,36.4,38.6,35.9
O=C(NCCS)c1ccc(C(F)(F)F)c(=O)[nH]1,20.1,27.6,18.7,55.8,21.2,42.4,31.5,29.3,41.7,45.2,41,37
Cc1cc(NC(=O)CCS)nn1CC(N)=O,11.4,23.6,26.9,30.6,25,18.9,21.3,31,28.2,39.6,,
O=C(NCCS)c1c(C2CC2)nc2sccn12,34.4,55.4,27.2,36,43.5,70.7,35.2,28.8,31.4,67.8,46.8,54.7
O=C(CCS)NCC(O)(c1ncco1)C(F)(F)F (stereo unspecified),9.4,32.3,29.5,31.9,32.9,13.7,19.9,35.5,35.7,42.9,,
CC1(C(=O)NCCS)CCN(c2ccncc2)CC1,12.6,46.2,41.7,33.5,62.6,31.2,36.6,33.3,35.6,55.2,55.5,50.8
O=C(CCS)NC1(Cc2ccc(F)cc2)CC1,13.5,35.4,40.7,22.2,26,38.1,23.8,42.8,31.5,44.6,,
O=C(NCCS)c1cncc(-c2ccc3c(c2)CCO3)c1,16.1,16.7,12.7,18.2,12.7,59.2,14,14.8,11.7,20.9,24.4,39.5
CN1Cc2ccc(CNC(=O)CCS)cc2C1,0,17.5,35.3,12.5,35.5,8.6,7.5,19.7,21.3,44.2,,
COc1cccc2c1CCN(C(=O)CCS)CC2,23.3,41.4,30.5,32.7,28.8,54.1,31.1,27.4,30.2,56.2,,
Cc1ccc(CNC(=O)CCS)c(OC2CCCC2)c1,7.2,20.9,17.5,15.5,14.1,29.2,22,16.6,14.2,33.4,,
CN(Cc1ccccc1C(F)(F)F)C(=O)CCS,26.4,45.2,27.4,34.7,31.9,46.9,27.4,29.1,30.1,51.2,,

SMILES,percent labeling [1] [%],percent labeling [2] [%],percent labeling [3] [%],percent labeling [4] [%],percent labeling [5] [%],percent labeling [6] [%],percent labeling [7] [%],percent labeling [8] [%],percent labeling [9] [%],percent labeling [10] [%],percent labeling [11] [%],percent labeling [12] [%]
Cc1cc(=O)[nH]c(N2CCN(C(=O)CCS)CC2)n1,9.3,28.2,36.1,34.4,35.7,13.1,21,30.2,29.6,55.5,,
O=C(NCCS)C1CCCN(Cc2cccc(F)c2)C1 (stereo unspecified),15.9,40.5,34.1,36.7,53.2,38.3,29.1,31.5,28.2,52.3,46.4,45.7
O=C(CCS)NCCc1cc(-c2ccncc2)n[nH]1,15.6,28.7,47.2,24.4,41.8,22,13.2,29.1,24.1,42.1,,
O=C(NCCS)c1cncn1-c1ccccc1Cl,23,49.3,31,49,40.4,48.1,35.3,34.7,36.5,55.5,55.5,46
CC(C)n1nc(C(=O)NCCS)c2ccccc2c1=O,18.7,29.1,13,19.7,23.5,43,16.4,17.4,17.3,38.4,33.6,33.6
O=C(CCn1cc(Br)ccc1=O)NCCS,15.5,30.3,28.4,35.9,33.7,24.3,25.5,32.6,29.8,40.8,33.5,32.9
CCCN1C(=O)CCc2cc(NC(=O)CCS)ccc21,12,27.8,28.3,26.3,23.8,48.3,20.6,20.5,20.1,37.1,,
O=C(NCCS)c1cnnc(-c2ccccc2)c1,15.6,18.7,21.2,19.2,24.9,54.4,12.5,26.9,17.3,39.4,27.7,32.1
CCCn1c(=O)[nH]c(=O)c2cc(C(=O)NCCS)cnc21,7.6,11.7,14.7,11.3,15.5,32.5,15.8,10.2,10.2,21.2,21.3,29.8
Cc1noc(C)c1CN(C)CCC(=O)NCCS,8.6,26.5,23.3,26.2,28.2,8.9,18.3,26,22.9,39.2,23.6,31.9
O=C(NCCS)[C@@H]1Cc2ccccc2O[C@H]1C(F)(F)F,14.5,19,15.8,24.1,15.6,29.4,23.1,22.6,13.1,19.5,40.8,27.8
O=C(NCCS)c1csc(Nc2cc(F)cc(F)c2)n1,53,22,12.7,18.1,12.2,65.2,12.1,13.5,8.1,24.1,24.2,27.1
Cc1ccc(C(=O)NCCS)cc1-n1cccc1,7,8.6,7.3,10.6,4.9,21.8,0,7.5,5.1,40.1,16.9,21.8
Cc1csc2ncc(C(=O)NCCS)c(=O)n12,27.8,22.8,21.3,30.7,26.5,56.6,15.6,15.1,17.8,43.1,30.8,40.8
Cc1cc(C(F)F)n2ncc(C(=O)NCCS)c2n1,24.7,31.8,28,34,41.5,39.6,21.6,26.3,26.1,52,40.6,37
Cc1ccc(Nc2cccc(C(=O)NCCS)c2)nn1,25.3,36.4,22.6,39.1,29.8,45,36.4,23.5,22.5,38.2,39.6,51.5
Cc1ccn(-c2ccccc2C(=O)NCCS)n1,13.9,35.5,29.8,31.6,58.1,29.4,22.8,32.3,28.8,46.1,38.2,35.2
O=C(NCCS)C1(C2CCOCC2)CCOCC1,6.7,27.4,22.9,26.3,27.1,7.2,25.3,29.3,31,34.9,19.7,30.8
CC1(C)CNC(=O)c2c(C(=O)NCCS)coc2C1,14.5,33.1,23,45.5,33.1,43.5,24.1,28.4,30,48.2,30.7,34.4
O=C(NCCS)c1ccc2cc(O)ccc2c1,18.9,23.7,16,9.4,16.5,55.7,18.1,17.8,11.6,29.6,35.8,47.7
CC(C)CNC(=O)N1CCCC(CC(=O)NCCS)C1 (stereo unspecified),8.1,27.4,17.1,29.4,22.2,12,19.6,23.3,23.3,32.9,20.7,24.3
Cc1nc2ccccc2n(CCNC(=O)CCS)c1=O,13.6,32.1,41.6,39.6,37,29.4,22,32.5,31.8,53,,
COC(=O)c1ccc(CNC(=O)CCS)nc1C1CC1,15.8,31.7,35,25,39.2,31.5,27.3,28.1,31.9,49.8,,
